The source gives no read counts; variants with many changes may rest on few reads.
B1: LINE1-mini (parent)
chain: GGCAGAGCUCAACACAGCGUGGCAAAGUGGCUGUGGCUAGACUGCC

Variants of: B1
Test: self-cleavage, relative activity (ratio to wild type); higher = more cleavage; in vitro, sequencing; the parent is a self-cleaving ribozyme

Variant | self-cleavage
G5U C8A U9A G40C | 0.17
C3G C42A G44A | 0.08
G5U C18A U20A | 0.03
A6U C8A U43C | 0.02
G1C A11G A12G C23G | 0.01
G19U G21A G27U G33A U38A | 0.1
G7C G22U C37U C45A | 0.01
G7C G33U G36U C46U | 0.24
C8A A14C G17A A26C | 0.07
A11U A12U C37A U38A A41G | 0.01
C3U C8U U28C | 0.13
C13G A25U U34A | 0.07
A4U G19A G33U | 0.09
C8U G33U U43C C45U | 0.19
C18U G22C C42A C45A | 0.06
A4C G29C C31G U34C | 0.06
A6G C18G G44C | 0.05
G7A A12G G29C C31U | 0
U9G C13U G29C U34C C45U | 0.02
C13U G21C C45U | 0.08
G5A A14C G21C | 0.15
C8G C13G G22C | 0.02
U20G G21U G22U | 0.32
G1C G7U U32C | 0.02

Variant | self-cleavage
G5A G22U G40C | 0.08
A11C U32A G40C | 0.02
G5A G7U G21A G27U | 0.09
C3U U20G U43C | 0.04
A4G A25G U28C C37G | 0.02
A14U G22A A26C | 0.8
C13A A16U G44C | 0.04
A12U C23A A24U | 0.28
C8A G33A C46A | 0.22
A12G C13U G17U A26G G27A C45A | 0.01
U9C C15G A16U G36A A41C | 0.05
G2U C8U G36A C42A | 0.05
G5A A14C C15A A16C G21U G35U | 0.02
A6G C31U U38A | 0.08
C13A C15A C31U | 0.06
C18G C23U G40C | 0.04
G5A C8A C18A C37U A39G | 0.38
A14G G19C A24U C31U | 0.07
G5A C10U C42U | 0.14
G17C U28C A41C U43A | 0
G7A C13A U28A C31A U43G | 0.02
G2A G19U U20C U34A | 0.08
G17C G33A G36U G40U | 0.06
G1U G17U G35U | 0.04

Variant | self-cleavage
U9G G17C A26U | 0.01
C23A G30U G36A | 0.72
C18U U20C C42A | 0.04
C3A G5U A6G U43G | 0.28
A11G G27A U38A G40A | 0
G17A G19A A24U | 2.2
A12C C13U A14U U20C G21C A25U U28A G40C C42U | 0.01
A16U G36U C45U | 0.02
A12U C23G A39U C42G | 0.01
C13U G17U C23A U32C | 0.05
A4G G19C A39U | 0.05
G2U C8U C10G G35U C37A | 0.01
C3A U9A C13U G21C A24U | 0.38
G2U C3U G40A | 0.04
G5A C13G U28C G33C | 0.03
C15G G33A A41G | 0.02
C13G C15G A26U G35U | 0.01
U9C G21U C31G | 0
G1U A6G U20A G27C A39U | 0.01
A4G A25G G30U | 1.3
U9C U20C G40U | 0.02
G7C G21U A39U | 0.07
A14C C15U C31U G44C | 0.01
G5A A41U C42U | 0.05

Variant | self-cleavage
C10A C23A A25G U38G A41G | 0
A4C C8G C23A G29U C31A | 0.06
C15G C31A C46A | 0.01
A12G G36A G44A C45U | 0.03
U9G C15A C18A G44A | 0.04
G5A C13A G30U C46G | 0.04
G17A G30C C37G | 0.05
G5U U9A C23U | 0.04
A11G U34C C42A | 0.04
U20C G33U C46U | 0.05
C8U C23U C45A | 0.58
G7U C8G C15U A25U G27U G40U C42G | 0.04
U9G U28G A39C | 0.09
C10G G22U G44A | 0.06
A6C A11U C13A C18A G29A | 0.02
A6U G33A C37A | 0.06
C3U C23A G44A C45U | 1.25
A11U U28A C45G | 0.02
A14U A16C U20C C31A U43C | 0.02
U9C U28G G40U | 0.02
G2U G40C A41U | 0.03
A11G C23U U32C | 0.01
G2C G30A C31U | 0.04
C3U G19A C23G | 0.29

Variant | self-cleavage
U9A G19A G29U | 0.16
G36C C37A C46G | 0.03
A4C C13A G30U | 0.05
G1U C3G A4G G5C U20G | 0
A4C G17U G30U C45A | 0.02
C23U G35A G36A | 0.09
C3G A24C C37A | 0.12
A16C A25C C31G | 0
C3G A12U U32A U34G | 0.01
C8A C10G A11G U20A A25U U28C A41C U43A | 0
G5U A11G C13A G35U C37A | 0.08
A14G G22A G29A G33U | 0.07
C3A A4U A14U G29U | 0.1
A24G G29U G33C G36A A39G | 0
C8A A14G G22U G30U | 0.95
G5C G27A A41G | 0.24
C8A G19U A24C G35U C46U | 0.05
A14C U32G C42A | 0.03
A12U G17A G33A C45A | 0.01
G5U C18G G29U | 0.13
U9G A14C A26G | 0.05
G1U U28G C45G | 0.2
C13U A16U G30A U43A C45G | 0.08
G7A C8A C10U | 0.07

Variant | self-cleavage
U9G A12U C45U | 0.08
C10A G27C G33C | 0.01
A12C C15A G29A | 0.03
A6U C15A C18U U34G | 0.01
G7A C8U C10A C45A | 0.02
A11G U20G A26C C37A G40A C42U | 0
G1U U34G G36C G40C A41U C46G | 0.03
A16U C18U G21U G27U G40U | 0.06
C10U A24C U34G | 0.06
C8U C10A A24U | 0.04
A12G A24U G27C G36C C46A | 0
G7C U9A G27A G30U G36U | 0.02
C10A C31U C37U | 0.01
G19A U32G C45G | 0.06
U9C C23A C37G | 0
G1A U9A C31U U38C | 0.01
G1U C37G G44A | 0.2
G1C A16U U20A C23U G33A | 0.01
C3A G19A G22A A25G U38C | 0.1
A4C C10A U20A A25C G30U C42U | 0.01
G21A U28A G29U G35U | 0.32
A4G G21U C45A | 0.22
C18U G30U U43G C46A | 0.02
C18A G33U G36C | 0.01

Variant | self-cleavage
G2C C10A G21U G30U G40A | 0
G2C A6G U28G G40A | 0.04
G1U A4G U28G C46U | 0.21
G17A A26U U43G C46U | 0.08
A16C U38C G40A C46A | 0.04
G19U C37A C42G | 0.03
A24U C31G G36A | 0.04
G1A G5U G19A U34G | 0.05
C13U A16C G29U | 0.09
A4U C8U U20C A41U | 0.09
G21U U28G G33A U34A G35C | 0.04
G2A C15G C31U C37G U38G | 0.01
A4C C13U G30A C37A C42U | 0.09
C15A A24C U28G G29C | 0.04
U20A G36A A41C | 0.13
G1C G22U G29C C45A | 0.08
C3U A24C G30A | 0.98
G7A G44A C46A | 0.7
A12C C15U C42U | 0.04
C10A A14C C15U C45G | 0.02
U9G G27A U43A C45A | 0
G5U G7U A11C | 0.02
G7U C18G U28C G40U | 0.01

Source: the RNAGym collection of RNA variant scans (doi:10.7554/elife.90254)
